Experimental data reported in PMC4336329 (PLoS ONE, 2015).
The whole screen tested about 310,000 compounds, of which about 14,000 (4.5%) showed an effect of 50% or more. The effect is printed as a negative number. The list shows a part of the results.

target: human ether-à-go-go-related gene (hERG) potassium channel (human, UniProt Q12809); test: primary screen, population patch clamp on CHO cells stably expressing hERG
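Also: peak tail current of the secondary pulse compared with the same well before compound.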

Chain of human ether-à-go-go-related gene (hERG) potassium channel (Q12809 whole entry, looked up): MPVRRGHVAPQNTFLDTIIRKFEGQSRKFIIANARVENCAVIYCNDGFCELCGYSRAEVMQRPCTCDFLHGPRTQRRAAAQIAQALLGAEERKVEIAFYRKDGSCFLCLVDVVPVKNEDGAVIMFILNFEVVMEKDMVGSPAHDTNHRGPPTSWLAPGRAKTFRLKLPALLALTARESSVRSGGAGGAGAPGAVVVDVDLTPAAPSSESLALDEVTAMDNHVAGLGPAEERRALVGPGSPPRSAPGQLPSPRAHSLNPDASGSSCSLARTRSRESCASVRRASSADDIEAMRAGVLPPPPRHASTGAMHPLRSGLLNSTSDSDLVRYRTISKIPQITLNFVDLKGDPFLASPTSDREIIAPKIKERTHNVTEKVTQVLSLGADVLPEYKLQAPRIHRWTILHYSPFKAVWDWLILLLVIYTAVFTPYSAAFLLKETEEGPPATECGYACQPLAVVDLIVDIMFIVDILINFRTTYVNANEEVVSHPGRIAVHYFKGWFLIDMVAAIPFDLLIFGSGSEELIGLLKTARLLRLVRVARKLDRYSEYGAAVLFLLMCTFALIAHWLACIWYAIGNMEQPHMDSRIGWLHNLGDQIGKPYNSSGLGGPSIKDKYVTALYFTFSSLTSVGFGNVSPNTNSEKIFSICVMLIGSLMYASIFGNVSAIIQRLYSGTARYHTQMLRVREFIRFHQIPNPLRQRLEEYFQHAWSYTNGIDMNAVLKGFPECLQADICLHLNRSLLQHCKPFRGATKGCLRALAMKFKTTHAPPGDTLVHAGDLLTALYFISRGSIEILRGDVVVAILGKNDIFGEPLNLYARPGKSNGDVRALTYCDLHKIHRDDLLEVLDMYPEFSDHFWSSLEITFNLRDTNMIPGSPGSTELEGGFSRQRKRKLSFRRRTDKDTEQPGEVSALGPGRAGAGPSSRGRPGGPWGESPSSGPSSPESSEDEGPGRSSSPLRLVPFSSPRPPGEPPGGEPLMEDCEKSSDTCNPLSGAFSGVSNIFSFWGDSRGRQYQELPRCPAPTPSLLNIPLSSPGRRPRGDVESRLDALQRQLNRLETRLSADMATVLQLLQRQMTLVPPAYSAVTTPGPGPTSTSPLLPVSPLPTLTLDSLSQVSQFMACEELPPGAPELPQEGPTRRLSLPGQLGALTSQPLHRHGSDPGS

Compound | hERG current change (%, negative = inhibition) at 10uM [%]
COc1ccc(NC(=O)CN(C)Cc2cccs2)cc1Cl | -15.7
CCN(CC(=O)NCc1ccc(Cl)cc1)C(=O)/C=C/c1cccs1 | -49.1
O=C(CCc1nnc2ccc(NCc3ccccc3)nn12)N1CCC2(CC1)OCCO2 | 14.4
CCc1ccc(NC(=O)c2cc3c(C)nc4ccccc4c3o2)cc1 | -8.43
Cc1cccc(N2CCN(C(=O)c3nn(C)c4c3CS(=O)(=O)c3ccccc3-4)CC2)c1C | -33.4
COc1ncccc1C(=O)NC1CCCc2c1cnn2-c1cc(C)cc(C)c1 (centres unmarked) | -7.08
COc1c(S(=O)(=O)n2nc(C)cc2C)ccc(Cl)c1Cl | -10.6
CCOC(=O)c1cc(C)sc1NC(=O)CSC1=NCCS1 | -13.4
O/N=C1\CC/C(=N\O)c2nn(-c3ccc(Cl)cc3Cl)nc21 | -2.2
Nc1cc(=O)[nH]c(SCC(=O)Nc2cccc(Cl)c2Cl)n1 | 22.1
Cc1ccc(-c2nnc(-c3ccc(NC(=O)Cc4cccs4)cc3)o2)cc1 | 0.386
COc1ccc2oc(C(=O)NC3(C)CCS(=O)(=O)C3)c(C)c2c1 (centres unmarked) | -1
CCOC(=O)C1CCN(c2c(NCc3ccc(C(=O)NCCOC)cc3)c(=O)c2=O)CC1 | -7.38
CC(C)(C)c1cc(=O)[nH]c(SCc2ccccc2)n1 | 17.3
CCOC(=O)Cc1csc(NC(=O)Nc2ccc(Cl)cc2)n1 | 11.5
C/C(=C\C(=O)c1ccccc1)NCc1ccc(F)cc1 | -22.7
COc1cc(C(=O)Nc2ccccc2NC(=O)c2cc(OC)c(OC)c(OC)c2)cc(OC)c1OC | -4.27
COc1ccc([C@@H]2[C@@H]3C(=O)N(C(C)(C)C)C(=O)[C@@H]3[C@]3(C)C(=O)N(c4cccc(Cl)c4)C(=O)N23)cc1 | 4.71
COc1ccc(-c2nnc(Sc3nc4ccccc4o3)c3ccccc23)cc1 | -3.62
Cc1cc(C)c2c(N)c(S(=O)(=O)c3ccccc3)sc2n1 | 7.32
N#Cc1ccsc1NC(=O)CSc1ncnc2ccccc12 | -1.02
CN(Cc1ccccc1)C(=O)CCn1c(=O)c2cccn2c2cccnc21 | -13.7

Compound | hERG current change (%, negative = inhibition) at 10uM [%]
Cc1cc(/C=N/Nc2ccc([N+](=O)[O-])cn2)c(C)n1-c1ccc(C(=O)O)cc1 | 19.2
COc1ccc(C(CNC(=O)c2ccc(OCC3CCCO3)cc2)N2CCOCC2)cc1 (centres unmarked) | 14.5
CCCCNC(=O)Cn1c(=O)c2c(ncn2CCC(C)C)n(Cc2ccccc2)c1=O | 7.07
O=C1C(=O)N(c2ccccc2)C(c2ccccc2[N+](=O)[O-])/C1=C(\O)c1ccccc1 (centres unmarked) | 36.5
O=[N+]([O-])c1cccc(C2=NCCC(c3ccccc3)O2)c1 (centres unmarked) | -22.8
O=C(CCCCCNC(=O)c1ccccc1)N/N=C/c1ccccc1O | -6.36
COC(=O)c1ccc(N2C(=O)CC(SCCN)C2=O)cc1 (centres unmarked) | -16.3
COc1ccccc1NC(=O)Nc1nc(CC(=O)N2CCN(c3ccccc3)CC2)cs1 | 9.49
COc1ccc(CCNC(=O)COC(=O)CCC(=O)c2ccc(F)cc2)cc1OC | 12.9
Cc1ccc(/C=N/NC(=O)CSCc2ccc(Cl)cc2)cc1 | 11.3
O=C(Cn1cc(C(=O)c2ccccc2)c2ccccc21)NCc1ccco1 | -8.07
O=C(NCCc1ccccc1)C1CCC(Cn2c(=O)c3ccccc3n(Cc3cccc(F)c3)c2=O)CC1 (centres unmarked) | 5.01
COc1cc(OC)c(NC(=O)CCCn2c(=O)oc3ccccc32)cc1Cl | 9.61
COc1cccc(/C=N/n2c(-c3ccco3)nc3ccccc3c2=O)c1 | -3.1
NC(=O)c1nn(Cc2ccccc2)c(=O)c2ccccc12 | 4.12
Cc1noc(C)c1CSCC(=O)Nc1cc(S(C)(=O)=O)ccc1Cl | 0.564
O=C(COC(=O)c1cc[n+]([O-])cc1)Nc1ccccc1Cl | 9.26
CN(CCC1CCOCC1)C(=O)c1cc(COc2c(F)cccc2F)on1 | -43.6
O=C1COc2ccc(C(=O)COC(=O)c3ncc(Cl)c(Cl)c3Cl)cc2N1 | 36.6
O=C(NCC(c1ccco1)N1CCCCC1)c1ccc(COc2ccccc2)cc1 (centres unmarked) | -43.3
CCN(C(=O)CSc1nnc2c3ccccc3n(CC)c2n1)C1CCS(=O)(=O)C1 (centres unmarked) | -29
O=C(COC(=O)/C=C/c1ccccc1)NNC(=O)c1ccc([N+](=O)[O-])cc1 | -24.2

Compound | hERG current change (%, negative = inhibition) at 10uM [%]
CN(C)c1ccc(C(=O)OCC(=O)N2CCCCCC2)cc1 | 3.85
COc1ccc(C2C=C(C)Nc3nc(SC)nn32)cc1 (centres unmarked) | -19.9
CCC(C)N1C(=O)c2ccccc2C1C(=O)NC1CCCCCC1 (centres unmarked) | 4.45
Cc1ccccc1N(C(=O)c1snc(C(N)=O)c1N)C(C)C(=O)NC1CCCCC1 (centres unmarked) | -12.6
CC(C)(CNC(=O)C1c2ccccc2-c2ccccc21)N1CCOCC1 | -0.52
Cc1ccc(NC(=O)Cn2c(C)cc(C)c(C#N)c2=O)c(Cl)c1 | 14.8
Cc1ccc(-n2c(=S)[nH]c3[nH]ncc3c2=O)cc1 | -11.8
COCCNC(=O)CC(NS(=O)(=O)c1ccc(C)cc1)c1ccco1 (centres unmarked) | 13.1
C/C(=N\N(C)C)C1=C(O)c2ccccc2C1=O | 12.5
COc1ccc(CCN(C)C(=O)CCc2nnc(-c3ccccc3)o2)cc1OC | 16.6
COc1ccc(N(C)S(=O)(=O)c2cccc(C(=O)OCC(=O)NCc3ccccc3OC)c2)cc1 | -2.62
O=[N+]([O-])c1ccc(CSc2nc3ncc(Br)cc3[nH]2)cc1 | 6.04
Cc1ccc(C)c(N2CCN(C(=O)C(Cc3ccccc3)n3cccc3)CC2)c1 (centres unmarked) | -0.875
O=C(NNS(=O)(=O)c1ccc(F)cc1)c1ccc(S(=O)(=O)N2CCCCC2)cc1 | -23.2
C/C(=C\C(=O)c1ncc(C(F)(F)F)cc1Cl)N(C)C | -3.11
ClCc1c2ccccc2cc2ccccc12 | -3.93
CCOC(=O)c1c(C)[nH]c(C(=O)OCC(=O)N2CCN(S(=O)(=O)c3ccccc3)CC2)c1C | -1.33
O=C(CCc1c[nH]c2ccccc12)N[C@@H](Cc1c[nH]c2ccc(O)cc12)C(=O)O | 17
COc1ccc(NC(=O)c2cc(S(=O)(=O)N3CCCCC3)c[nH]2)cc1 | 4.58
COc1ccc(CCSc2nnc(C3CCCCC3)n2N)cc1 | -13.3
C[C@H]1O[C@@H](n2cc(F)c(=O)[nH]c2=O)[C@H](O)[C@@H]1O | -7.54
CC(C(=O)NCCN1CCOCC1)c1ccc([N+](=O)[O-])cc1 (centres unmarked) | 16.7

Compound | hERG current change (%, negative = inhibition) at 10uM [%]
CCOC(=O)Cn1c(=O)n(Cc2ccccc2)c(=O)c2cccnc21 | -6.44
O=C(c1ccc(F)cc1Cl)N(Cc1ccco1)C1CCS(=O)(=O)C1 (centres unmarked) | 5.26
Cc1cc(=O)[nH]c(SCC(=O)N(CCC#N)c2ccccc2)c1C#N | 15.3
O=C(CCCOc1ccccc1)Nc1nnc(C2CCCO2)s1 (centres unmarked) | 12.4
COC(=O)c1sccc1-c1ccc(C(=O)Nc2cccc(Cl)c2)o1 | 14.3
CC(=O)NC1CCN(CC(=O)Nc2nccs2)CC1 | 14.9
CCOCC(=O)Nc1cc([N+](=O)[O-])ccc1OC | 15.7
O=C(COC(=O)c1c(F)cccc1Cl)NC1CCCC1 | 10.2
Cc1ccc(-c2csc(N3CCN(CCCn4c(-c5ccncc5)nc5ccccc54)CC3)n2)cc1 | -32.4
CCOC(=O)C1(Cc2ccccc2)CCCN(C2CCCC2)C1 (centres unmarked) | -2.87
Cn1nnc(NC(=S)NC(=O)c2cc(Cl)ccc2Cl)n1 | 9.98
O=C(NNC1=C(C(=O)C(F)(F)F)CCC1)c1ccccc1O | 17.7
COc1ccccc1C(=O)NCc1n[nH]c(=S)n1Cc1ccccc1 | 18.6
COc1ccc(CCC(=O)NNC(=O)c2ccc(OC)cc2)cc1 | 17.2
CCOC(=O)NNC(=S)Nc1c(C)n(C)n(-c2ccccc2)c1=O | 4.89
CCN(c1ccc(C)c(C)c1)S(=O)(=O)c1ccc2c(c1)CCN2C(=O)CCC(=O)O | -4.47
Cc1ccc(Cl)c(OC(=O)c2nn(C(C)C)c(=O)c3ccccc23)c1 | -2.19
CCCOc1cccc(C2/C(=C(/O)c3ccc(OC)cc3)C(=O)C(=O)N2CCN(C)C)c1 (centres unmarked) | 8.04
CC(C)c1cccc(C(C)C)c1NC(=O)Cn1c(=O)cnc2ccccc21 | -0.856
Cc1cc2n(n1)C(c1cn(-c3ccccc3)nc1C)Nc1c(C)cccc1-2 (centres unmarked) | -5.41
